The list shows a part of the results. At the low end of the ranking the order means little.

For the assay, the system named is T1, GST-NbGlk1(82-244).
T1 sequence: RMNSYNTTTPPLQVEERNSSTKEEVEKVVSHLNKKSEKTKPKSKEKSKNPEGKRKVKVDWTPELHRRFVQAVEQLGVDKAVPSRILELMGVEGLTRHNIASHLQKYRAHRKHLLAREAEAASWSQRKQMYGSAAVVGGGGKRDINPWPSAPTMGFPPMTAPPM
The assay can be described thus: protein-binding microarray.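 Also: rank-based score ranging −0.5 to +0.5 with E above 0.45 taken as significant binding.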 The following applies: NbGlk1 is a Golden2-like transcription factor of Nicotiana benthamiana; high values mean tight binding; most listed sequences are background and not binding sites; double strand, one strand shown.
In turn, ATCTTGCG showed a binding signal of 0.192 E-score.
In the case of ATCGCCGC it was 0.155 E-score.
In the case of CACGGGGG it was -0.316 E-score; in that of ACAAGTAA, 0.0473 E-score.
As for ATTTTAAG, the binding signal was 0.229 E-score.
The same measure for AACATGTC: -0.196 E-score; for ATATCAAG: 0.298 E-score; for ACATAGTC: -0.02 E-score.
The sequence CACATGCG returned a binding signal of -0.171 E-score.
AATGCATA yielded a binding signal of 0.157 E-score.
ACTCATCC showed a binding signal of -0.0924 E-score.
In the case of AGGACTGC it was -0.181 E-score; in that of AGCTTTCA, -0.13 E-score.
CACTATGA showed a binding signal of -0.0471 E-score.
In the case of ACGAATGC it was -0.197 E-score; in that of ATCACTTC, 0.101 E-score.
The same measure for CAGCACTG: -0.126 E-score; for AGGCAAAC: -0.0907 E-score.
In the case of AAGCCTCC it was -0.198 E-score.
For ACAACTGA, the binding signal is -0.00799 E-score.
In the case of CAACAAAA it was 0.185 E-score.
AAGAACGT showed a binding signal of -0.0344 E-score.
The same measure for AGTTACGC: 0.0245 E-score.
The same measure for ACCTAGGA: -0.177 E-score; for ATCACGCC: 0.135 E-score.
The same measure for AGACCGTG: -0.212 E-score; for AAATGGCT: -0.298 E-score; for ACGAGTAG: -0.142 E-score.
In turn, ACCAAAGG had a binding signal of -0.146 E-score.
In the case of ATACATGA it was 0.137 E-score.
Sequence ATCCTCGG had a binding signal of 0.194 E-score.
In turn, ACAGGTGA gave a binding signal of -0.14 E-score.
In the case of AAAAGAAC it was -0.0339 E-score; in that of AAACCGCC, -0.236 E-score; in that of AGTTATAC, 0.0694 E-score.
In the case of ATAAGAGA it was 0.0488 E-score.
The same measure for AGCATCTC: 0.0203 E-score; for AACGTGAC: -0.25 E-score; for AGAAAATA: 0.175 E-score.
AATACTCT: the binding signal was -0.00729 E-score.
ACTGGCAA: the binding signal is 0.0586 E-score.
In the case of ACCTCAAG it was -0.0775 E-score; in that of AGCCTAGA, -0.105 E-score.
In the case of CAGCAGAG it was -0.0542 E-score; in that of CACACGGG, -0.116 E-score.
The sequence AGAACGCT had a binding signal of -0.138 E-score.
Sequence ATTCCGCC had a binding signal of 0.166 E-score.
On to AATCGTGA, for which the binding signal is 0.312 E-score.
The same measure for ACAGTGCT: -0.139 E-score.
The same measure for ATAGACGA: -0.0219 E-score.
ACCCCCGG returned a binding signal of -0.322 E-score.
ATTACTTA yielded a binding signal of 0.22 E-score.
The same measure for ATCGTTGA: 0.183 E-score.
The sequence AATAAGTC gave a binding signal of -0.00849 E-score.
The same measure for AGATGCAG: 0.0183 E-score; for AAAAAGCC: -0.196 E-score; for ACCTGGCC: -0.186 E-score.
The sequence AATGCCAG came in with a binding signal of -0.00403 E-score.
The same measure for AGGCGTCA: -0.235 E-score; for ACTGCGCC: 0.0066 E-score; for CAAGGGTG: -0.235 E-score.
The same measure for AGGGTCCG: -0.23 E-score; for ACGTCTCG: -0.0648 E-score; for ACATGTAA: 0.148 E-score.
The same measure for ACTTACGG: 0.0151 E-score; for ATGTTACC: -0.0458 E-score.
Sequence ACTGCGAA registered a binding signal of -0.036 E-score.
The same measure for AAACAATT: 0.0478 E-score; for ACGGATAG: -0.0213 E-score.
On to ATCCACTG, for which the binding signal was 0.283 E-score.
The same measure for AGGGGAAG: -0.0863 E-score; for AACGTGGT: -0.181 E-score; for AGGTCCTA: -0.213 E-score.
The same measure for ACAGGCCG: -0.237 E-score; for CAATTATA: 0.186 E-score.
Consider AAAGTATA, for which the binding signal was found to be 0.122 E-score.
The same measure for ACTGTACG: -0.0907 E-score.
In the case of ATACGATA it was 0.295 E-score; in that of ACTAGAAG, 0.0752 E-score; in that of CACGTCGA, 0.0436 E-score.
The same measure for ACAGACGC: -0.0252 E-score; for ACGGAGTG: -0.232 E-score; for AATAATAT: 0.259 E-score.
For the sequence ACGTCGCC, the binding signal was -0.0746 E-score.
With AACGCTAG, the binding signal was -0.166 E-score.
In the case of ATCGGCAG it was 0.0653 E-score.
The same measure for ACAGGGGC: -0.215 E-score; for ATTTATGC: 0.00576 E-score.
The same measure for AGTGCCGG: -0.181 E-score; for AGCGGACT: -0.182 E-score.
Regarding AGCGGCCC, the binding signal is -0.378 E-score.
In the case of CAAAACTG it was -0.0391 E-score; in that of ACTGCATG, -0.0993 E-score.
In the case of AGCCAAAG it was -0.195 E-score; in that of ATCGTTTC, 0.0826 E-score; in that of AAATAGAA, 0.132 E-score.
In the case of CAAGGGCA it was -0.215 E-score; in that of AATTATCT, 0.159 E-score; in that of ATAGAGAA, 0.231 E-score.
Sequence AGTGAAAT returned a binding signal of 0.208 E-score.
In the case of ATAGAGTA it was 0.104 E-score; in that of ATGCAACG, 0.066 E-score.
The same measure for AAAATGGG: 0.011 E-score.
The same measure for ATGACTGG: -0.239 E-score.
For the sequence ATGAGCAA, the binding signal is -0.0262 E-score.
With ATAGTCCA, the binding signal is -0.00764 E-score.
In the case of ATCTTGGC it was 0.169 E-score; in that of ATAGGGCC, -0.209 E-score.
The same measure for ATCGTTCC: -0.0226 E-score; for CAGAGCTG: -0.156 E-score.

The values are drawn from PMC5836133.
